Test results: the supplement of paper PMC5655136
Values come from read counts of a selection and are noisy.

Tested on: NB7
Experiment: fold depletion of shRNA, plasmid library share / infected cells without Dox share (9 days) (ratio); higher = more depleted after infection (more toxic, leaky expression from a Tet-inducible vector; NB7 is a neuroblastoma line without caspase-8)
[1] = shRNA pool: CD95L ORF + CD95L 3'UTR + Venus libraries
[2] = shRNA pool: CD95 ORF + CD95 3'UTR + Venus libraries
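Also: shRNA barcodes quantified by deep sequencing of PCR amplicons from cellular DNA, counts expressed as percent of each subpool, ratio averaged over two biological duplicates.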

Sequence | fold depletion of shRNA [1] | fold depletion of shRNA [2]
CCGAGGTGAAGTTCGAGGGCG | 0.93 | 0.879
CCGCAGCAGCTACCTGGGGGC | 96.8 | 
CCGCATCGAGCTGAAGGGCAT | 0.908 | 1.54
CCGCCACAACATCGAGGACGG | 1.47 | 1.02
CCGCCATGCCCGAAGGCTACG | 1.59 | 1.04
CCGCCCTGAGCAAAGACCCCA | 1.02 | 1.14
CCGCCGACAAGCAGAAGAACG | 0.793 | 0.826
CCGCCGCCACCACTGCCTCCA | 5.61 | 
CCGCCGCCGGGATCACTCTCG | 0.868 | 0.971
CCGCCGGGATCACTCTCGGCA | 0.726 | 0.83
CCGCGCCGAGGTGAAGTTCGA | 0.75 | 0.557
CCGCTACCCCGACCACATGAA | 1.19 | 1.81
CCGCTGCCACCCCTGAAGAAG | 0.0689 | 
CCGGACCCAGAATACCAAGTG |  | 0.71
CCGGCAAGCTGCCCGTGCCCT | 1.47 | 0.802
CCGGCGAGGGCGAGGGCGATG | 0.635 | 1.01
CCGGGATCACTCTCGGCATGG | 0.977 | 1.68
CCGGGGTCAATCTTGCAACAA | 3.21 | 
CCGGGGTGGTGCCCATCCTGG | 1.05 | 1.79
CCGTGCCCTGGCCCACCCTCG | 0.629 | 0.541
CCGTGCTGCTGCCCGACAACC | 0.694 | 1.02
CCTAAAGAACTTCCATTTATG |  | 0.618

Sequence | fold depletion of shRNA [1] | fold depletion of shRNA [2]
CCTAACACAGCATGTGTATTT | 1.12 | 
CCTAATGCACCCCCAAACATG |  | 4.44
CCTACAGAAGGAGCTGGCAGA | 0.71 | 
CCTACGGCAAGCTGACCCTGA | 1.4 | 0.676
CCTACGTTTAAATATCTTTGA |  | 0.762
CCTACTTCTTTCTCAGGCATC |  | 2.15
CCTATAATATAATAAATATTT | 1.76 | 
CCTATGGAATTGTCCTGCTTT | 2.43 | 
CCTCAACTCACCTAATGTTTA | 1.14 | 
CCTCAAGGACATTACTAGTGA |  | 0.733
CCTCAAGGGGGACTGTCTTTC | 0.305 | 
CCTCCAAGGATGTTTAAAATC |  | 0.528
CCTCCAGGCACAGTTCTTCCC | 1.92 | 
CCTCCAGGTGAAAGGAAAGCT |  | 0.947
CCTCCTACCTCTGGTTCTTAC |  | 5.24
CCTCGTGACCACCCTGGGCTA | 1.81 | 1.39
CCTCTAAATTACCTCTGATAA |  | 1.75
CCTCTCAAGGTGGGCCTTGCT | 1.86 | 
CCTCTCCATTTTTGCCTTGGT |  | 3.9
CCTCTGATAATTCTAGAGATT |  | 1.15
CCTCTGGAATGGGAAGACACC | 4.92 | 
CCTCTGGTTCTTACGTCTGTT |  | 0.501

Sequence | fold depletion of shRNA [1] | fold depletion of shRNA [2]
CCTGAAAAAAAGGAGCTGAGG | 1.22 | 
CCTGAAACAGTGGCAATAAAT |  | 0.803
CCTGAAGCTGATCTGCACCAC | 1.47 | 0.969
CCTGACAATCAACTCTAATAG | 2.25 | 
CCTGAGAGTATTTAGGCAGAT | 1.74 | 
CCTGAGCAAAGACCCCAACGA | 2.01 | 1.07
CCTGAGCCACAAGGTCTACAT | 0.489 | 
CCTGAGCCATCGGTGAAACTA | 1.36 | 
CCTGAGCTACCAGTCCGCCCT | 2.02 | 2.27
CCTGAGGATTTAAGGGATGGA | 1.92 | 
CCTGCAGTGCTTCGCCCGCTA | 2.3 | 1.46
CCTGCCAAGAAGGGAAGGAGT |  | 0.898
CCTGCCCCTGAGCCACAAGGT | 3.36 | 
CCTGCTACAAATGGCAGCTTA |  | 5.47
CCTGCTGGAGTTCGTGACCGC | 2.24 | 2.68
CCTGCTTTCTGGAGTGAAGTA | 1.43 | 
CCTGGAACCACCTAAAGAACT |  | 1.98
CCTGGCCCACCCTCGTGACCA | 1.71 | 1.58
CCTGGGCTACGGCCTGCAGTG | 5.18 | 1.72
CCTGGGGCACAAGCTGGAGTA | 0.667 | 0.858
CCTGGTCAAAGGAGGCCACCA | 1.86 | 
CCTGGTCGAGCTGGACGGCGA | 0.869 | 1.07
